PubChem BioAssay AID488969 (Vanderbilt High Throughput Screening Facility, 2010)
In all, about 110,000 compounds were measured (“z-score”: median about -0.1, highest 2% from about 2 on). The list shows a part of the results. The source made the active and inactive calls.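 The calls were made as follows: active = z-score in the third read window above 3 or below -3; inactive = the rest.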

The compounds below were run against Metabotropic glutamate receptor 8 (Rattus norvegicus) (UniProt P70579) (assay: rat mGluR8 modulators via GIRK flux, primary screen, cell-based, thallium flux, HTS (AID 488969)). Settings: HEK293 rat mGluR8, GIRK (G protein-gated inwardly rectifying potassium channel) thallium flux, FluoZin2; at 10 µM; stronger effect = higher value; submaximal glutamate (EC20) added with thallium.
Chain of UniProt P70579 (P70579 whole entry, looked up): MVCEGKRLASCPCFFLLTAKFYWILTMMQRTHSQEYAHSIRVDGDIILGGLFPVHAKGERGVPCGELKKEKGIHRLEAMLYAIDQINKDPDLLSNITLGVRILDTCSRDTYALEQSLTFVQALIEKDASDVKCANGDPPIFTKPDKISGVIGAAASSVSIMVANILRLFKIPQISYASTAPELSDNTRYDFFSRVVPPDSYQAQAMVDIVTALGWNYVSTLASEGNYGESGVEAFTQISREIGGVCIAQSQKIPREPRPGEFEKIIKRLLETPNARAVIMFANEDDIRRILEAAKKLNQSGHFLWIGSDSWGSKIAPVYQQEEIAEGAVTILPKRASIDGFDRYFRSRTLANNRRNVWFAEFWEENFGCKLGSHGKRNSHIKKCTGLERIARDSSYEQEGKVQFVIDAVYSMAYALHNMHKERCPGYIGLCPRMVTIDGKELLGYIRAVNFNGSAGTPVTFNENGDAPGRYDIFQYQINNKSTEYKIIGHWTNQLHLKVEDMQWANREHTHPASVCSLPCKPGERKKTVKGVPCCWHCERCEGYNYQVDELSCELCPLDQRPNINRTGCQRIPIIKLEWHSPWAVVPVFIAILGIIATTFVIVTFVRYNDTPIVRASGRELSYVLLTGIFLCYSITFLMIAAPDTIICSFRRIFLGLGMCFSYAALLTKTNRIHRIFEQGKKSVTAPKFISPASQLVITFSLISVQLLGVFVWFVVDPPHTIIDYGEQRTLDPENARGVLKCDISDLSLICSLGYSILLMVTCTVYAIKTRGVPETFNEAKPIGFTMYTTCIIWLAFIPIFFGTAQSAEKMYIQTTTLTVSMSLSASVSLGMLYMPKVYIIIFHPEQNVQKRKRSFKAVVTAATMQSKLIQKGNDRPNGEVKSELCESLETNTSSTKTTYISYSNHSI
For `Cc1ccc(S(=O)(=O)N2CCC(=O)N2)cc1`, the z-score was 0.0388. `Cc1onc(-c2ccccc2Cl)c1C(=O)Nc1ncn[nH]1` was tested, and the z-score was 0.135. For `CCN(CC)CCNC(=O)c1ccc(NC(=O)c2ccc(Cl)c(S(=O)(=O)Nc3ccccc3OC)c2)cc1`, the z-score was 2.14. With `N=c1n(CCO)c2ccccc2n1CCOc1ccc(Cl)cc1Cl` the z-score was 0.259. `O=C(NCCc1nc2ccccc2[nH]1)/C(=C/c1ccc2c(c1)OCO2)NC(=O)c1ccccc1Cl` showed a z-score of -1.09. In the case of `COc1cc2c(cc1OC)CN(C(=O)CCCOc1ccc(Cl)cc1Cl)CC2`, the z-score was -0.416. `CCn1c2ccccc2c2cc(/C=N/NC(=O)c3ccc(O)cc3)ccc21` gave a z-score of -0.325. With `Cc1cccn2c(/C=N/OCc3ccc(F)cc3)c(-c3ccc(Cl)cc3)nc12` the z-score was 0.0899. `N#Cc1nc(-c2cccs2)oc1NCc1ccco1` gave a z-score of 0.26. For `CSc1nc(N)nc(SC2C=CCCC2)c1C#N` (stereo not drawn), the z-score was -0.137. `Cc1nn(C)cc1C(=O)Nc1ccccc1Br` gave a z-score of -0.343. With `Cn1ncc(Cl)c1C(=O)NCc1cc(C(C)(C)C)n[nH]1` the z-score was -0.338. For `CC1Cc2ccccc2N1C(=O)Cn1c(=O)oc2cc(S(=O)(=O)N3CCCCC3)ccc21` (stereo not drawn), the z-score was -0.25. With `Cc1cc(C)cc(N(CC(=O)NC2CCCCC2)C(=O)c2ccc(C)s2)c1` the z-score was -0.0241. Compound `NC(=O)c1sc2nc(-c3ccco3)ccc2c1N` has a z-score of -0.321. `CCOC(=O)c1sc(-c2ccc(Br)cc2)cc1N` gave a z-score of -0.146. For `NC(=O)C1(N2CCCCC2)CCN(C(=S)Nc2ccccc2)CC1`, the z-score was -0.163. `COc1ccc(NC(=O)C2CCN(C(=O)c3cccs3)CC2)c(OC)c1` showed a z-score of -0.342. For `Cn1nnc2cc(C(=O)Nc3cccnc3)ccc21`, the z-score was -0.208. `CCCCNC(=O)CCc1nc2cccnc2n1Cc1ccc(OC)cc1` gave a z-score of 0.0056. For `O=C(NC1=NCCS1)c1ccc(OCC2CCCO2)cc1` (stereo not drawn), the z-score was -0.511. Compound `Fc1ccc(N2CCN(C(c3cccs3)c3nnnn3CCc3ccccc3)CC2)cc1` (stereo not drawn) has a z-score of -0.0527. `Nc1c(C(=O)NCc2ccccc2)sc2nc3c(cc12)C(=O)CCC3` gave a z-score of -0.298. `COc1ccc(N/C=C/C(=O)c2ccc(Oc3ncccn3)cc2)cc1` was tested, and the z-score was -0.161. Compound `COC(=O)/C=c1/sc2nc3ccccc3n2c1=O` has a z-score of -0.0905. `CCCc1cc(=O)[nH]c(SCC(=O)c2cc(C)n(CCC)c2C)n1` gave a z-score of -0.328. Compound `CCOc1ccc2oc(C(=O)OCC(=O)NC(=O)NC3CCCC3)c(C)c2c1` has a z-score of -0.038. Work on `O=C(CO/N=C/c1cccc([N+](=O)[O-])c1)NC1CCCCC1` yielded a z-score of -0.0598. Compound `CCOC(=O)C1=C(C)NC2=C(C(=O)CC(c3cccs3)C2)C1c1cccs1` (stereo not drawn) has a z-score of -0.639. For `COc1ccc(-c2nnc(Nc3nc4c(OC)cccc4s3)o2)cc1`, the z-score was active: 17.1. `CN(CCCNS(=O)(=O)c1cccc2cccnc12)Cc1ccccc1` was tested, and the z-score was 0.0546. In the case of `CCCC(C)NC(C)C(=O)NC1CCCC1` (stereo not drawn), the z-score was -0.234. Work on `O=S(=O)(c1cccc2cccnc12)N(CCO)CCO` yielded a z-score of 1.05. Compound `COc1ccc(C2CC(=O)c3cnc(NC(=O)c4ccccc4OC)nc3C2)c(OC)c1` (stereo not drawn) has a z-score of -0.471. Compound `CCOc1ccc(C(=O)Nc2c3c(nn2-c2cccc(C)c2C)CS(=O)C3)cc1` (stereo not drawn) has a z-score of -0.371. `Cc1cccc(-c2nc(=S)c3c(o2)CCCC3)c1` was tested, and the z-score was 0.856. `O=C(Nc1cc(Cl)ccc1Oc1ccccc1)c1ccc(F)cc1` gave a z-score of -0.256. `Cc1cccc(C)c1NC(=O)c1cc(S(=O)(=O)N2CCOCC2)ccc1F` showed a z-score of -0.0718. Compound `COC(=O)c1ccc(Cl)c(NC(=O)c2ccc(-c3ccccc3)cc2)c1` has a z-score of -0.1. With `CCN1CCN(Cc2c(C)[nH]c3ccc(OC)cc3c2=O)CC1` the z-score was 0.46. `COc1cc(NC(=O)C2CC2)c(C(=O)O)cc1OC` gave a z-score of 0.363. For `Cc1cc(C)cc(NC(=O)Cn2c(=O)oc3cc(S(=O)(=O)N4CC(C)CC(C)C4)ccc32)c1` (stereo not drawn), the z-score was 0.103. Work on `CCOc1cc(C(=O)Nc2nnc(CC)s2)ccc1OCC(=O)N1CCOCC1` yielded a z-score of 0.0228. For `CCC(=O)c1cc(-c2nc3ccccc3n2C)n(C)c1`, the z-score was 0.351. Work on `Cc1cc(C)n2c(Nc3ccc4c(c3)OCCO4)c(-c3ccco3)nc2n1` yielded a z-score of -0.231. `CCC(=O)N(Cc1cc2ccc(C)cc2n2nnnc12)C1CCCCC1` showed a z-score of -0.401. Work on `COc1ccc(CCC(=O)Nc2ccc3c(c2)OCCO3)cc1` yielded a z-score of 0.397. `O=C(CSCc1ccc(Cl)cc1)Nc1cccc(C(=O)Nc2ccccc2C(=O)O)c1` gave a z-score of -0.71. In the case of `CCOc1ccc(C(=O)NCCN(C)C)cc1`, the z-score was 0.509. For `O=C(CSc1nnc2ncccn12)N1CCCCCC1`, the z-score was 1.25. With `Nc1nc2n(n1)C(c1cccs1)CC(c1ccc(Br)cc1)N2` (stereo not drawn) the z-score was 1.18. Work on `Cc1ccc(Sc2c(C#N)c(-c3ccccc3)nn2C)cc1` yielded a z-score of -0.0404. Compound `CCCn1c(SCC(=O)NC2CCCCC2C)n[nH]c1=O` (stereo not drawn) has a z-score of 0.79. `Cc1ccc(Oc2nn[nH]n2)cc1` gave a z-score of -0.0764. For `Cc1csc2nc(CSc3nc4ccccc4o3)cn12`, the z-score was 0.00634. `Cc1cc(O)c(NC(=O)c2ccco2)cc1C` showed a z-score of -0.0409. `O=C(CCN1CCCC1Cc1ccccc1)c1ccc2c(c1)OCCO2` (stereo not drawn) showed a z-score of 0.409. `CCC1CCCCN1C(=O)Cn1c(C(=O)OC)cc2ccsc21` (stereo not drawn) gave a z-score of 0.356. `CN(C)c1ccc(/C=C(\C#N)c2ccccn2)cc1` gave a z-score of -0.0409. Work on `O=C(NCN1CCN(c2ccccc2F)CC1)c1cccnc1` yielded a z-score of 0.0601. In the case of `CCn1cc(C(=O)O)c(=O)c2cc(F)c(N3CCN(S(=O)(=O)c4ccc(NC(C)=O)cc4)CC3)cc21`, the z-score was -0.428. `COc1cccc(CN2CCCC(C(=O)N3CCCCC3)C2)c1OC` (stereo not drawn) showed a z-score of 0.0909. Compound `O=C(c1ccc2ccccc2c1)N1CCN(c2ccc(O)cc2)CC1` has a z-score of -0.227. Work on `Cc1ccc(S(=O)(=O)N2CCOCC2)cc1C(=O)OCC(=O)N1CCc2ccccc2C1` yielded a z-score of -0.258. `Cc1ccccc1-c1nc(CS(=O)(=O)CC(=O)N2CCc3ccccc3C2)c(C)o1` was tested, and the z-score was 0.753. `CC(=O)NCc1cccc(CNC(C)=O)n1` gave a z-score of 0.231. Work on `Cc1ccn2c(C(=O)CSc3ccc(Cl)cc3Cl)c(C)nc2c1` yielded a z-score of -1.02. In the case of `COc1ccc(-c2c(C#N)c(N)nc3c2c(=O)n(C)c(=O)n3C)cc1`, the z-score was -0.978. `CC(C)OC(=O)CN1C(=O)S/C(=C/c2ccc(N3CCCCC3)o2)C1=O` was tested, and the z-score was 0.0366. `CCS(=O)(=O)N1Cc2ccccc2CC1C(=O)Nc1nc2c(C)cccc2s1` (stereo not drawn) gave a z-score of 0.537. In the case of `Cn1c(=O)n(CCc2ccccc2)c(=O)c2c1nc1n2CCCN1CCc1ccccc1`, the z-score was -1.85. `CNC(=O)c1snnc1-c1ccccc1` gave a z-score of -0.0688. `CC1(C)Oc2ccc(C(=O)NC3CCCC3)cc2N(CC(=O)NC2CCCCC2)C1=O` showed a z-score of 0.138.
